Laboratory results published in PubChem BioAssay AID588689 (Southern Research Specialized Biocontainment Screening …, 2011).
The campaign covered roughly 340,000 compounds. About 1,000 (0.29%) were called active. Rule as the data show it: inconclusive = inhibition above about 29% without an active follow-up result; inactive = below that. The inconclusive results got no clear call from the source.

The molecules below were run against Genome polyprotein (Dengue virus type 2 (strain 16681-PDK53)) (UniProt P29991) (assay: flavivirus cap methylation enzyme inhibition – biochemical, confirmation dose response, primary screen (AID 588689)). Conditions: Dengue-2 NS5 methyltransferase capping enzyme assay, at 25 µM, hits give high values.

| Structure (SMILES) | inhibition |
| --- | --- |
| COc1ccc2c(c1)NP(=S)(c1ccccc1)N2 (stereo unspecified) | inconclusive: 90.2% |
| NC(=O)Cn1cc(C=C2C(=O)NC(=O)NC2=O)c2ccccc21 | inconclusive: 190% |
| Cn1cc(C=C(C#N)C#N)c2ccccc21 | inconclusive: 85.1% |
| CN1/C(=C\C=C2C(=O)NC(=O)NC2=O)C(C)(C)c2ccccc21 | inconclusive: 60.6% |
| CNc1ccc2nc3ccccc3[n+](C)c2c1 | inconclusive: 82.7% |
| Cc1cc(C)cc(N2C(=O)NC(=O)/C(=C/c3cccn3-c3ccc(Cl)cc3)C2=O)c1 | inconclusive: 81% |
| O=C1NC(=O)C(=Cc2ccc(-c3ccc(S(=O)(=O)N4CCOCC4)cc3)o2)C(=O)N1 | inconclusive: 105% |
| C=CCSc1nc2c(c(-c3ccsc3)c1C#N)CN(C)CC2 | inconclusive: 28.7% |
| CN(C)[C@@H]1C(=O)C(C(N)=O)=C(O)[C@@]2(O)C(=O)C3=C(O)c4c(O)cccc4[C@@](C)(O)C3C[C@@H]12 (stereo partly specified) | inconclusive: 153% |
| Oc1c(Br)c(Br)c(Br)c(Br)c1Br | inconclusive: 49.4% |
| CC[C@H](C)/C=C(C)/C=C/C1=CC2=C(Cl)C(=O)[C@](C)(OC(C)=O)C(=O)C2=CO1 | inconclusive: 88.8% |
| O=C(O)c1ccc2c(c1)C1C(Cl)C(Sc3ccccc3[N+](=O)[O-])CC1C(c1cccc([N+](=O)[O-])c1)N2 (stereo unspecified) | inconclusive: 38.3% |
| COc1ccc(N=Cc2c(O)n(Cc3ccccc3)c(=S)[nH]c2=O)c(OC)c1 | inconclusive: 51.5% |
| Cc1cccc(N2C(=O)NC(=O)/C(=C/c3cc4c(cc3[N+](=O)[O-])OCO4)C2=O)c1 | inconclusive: 158% |
| C=CCn1cc(C=C2C(=O)NC(=O)NC2=O)c2ccccc21 | inconclusive: 30.1% |
| COc1ccc(OC)c(N=Cc2c(O)n(Cc3ccccc3)c(=S)[nH]c2=O)c1 | inconclusive: 30.3% |
| CCN1C(=O)NC(=O)/C(=C\c2cn(CC(=O)N3CCCCC3C)c3ccccc23)C1=O (stereo unspecified) | inconclusive: 65.8% |
| Cc1ccc2cc(C=C(C#N)C#N)c(Cl)nc2c1 | inconclusive: 57.8% |
| Cc1ccc(/C=C2/C(=O)NC(=O)N(CCc3ccc(F)cc3)C2=O)o1 | inconclusive: 48.9% |
| CN1CC=C2C(C#N)=C(N)C(C#N)(C#N)C(c3ccncc3)C2C1 (stereo unspecified) | inconclusive: 80.1% |
| O=C(Cn1cc(C=C2C(=O)NC(=O)NC2=O)c2ccccc21)NCC1CCCO1 (stereo unspecified) | inconclusive: 93.6% |
| CCn1nc(-c2ccccc2)nc2c(=O)n(C)c(=O)nc1-2 | inconclusive: 72.7% |
| COCCCNC(=O)Cn1cc(/C=C2\C(=O)NC(=O)N(c3ccccc3F)C2=O)c2ccccc21 | inconclusive: 42.8% |
| CCN(CC)c1ccc(N=Cc2c(O)n(-c3ccc(OC)cc3)c(=O)[nH]c2=O)cc1 | inconclusive: 106% |
| O=Cc1c(C(=O)O)n(Cc2ccc(Cl)cc2)c2ccccc12 | inconclusive: 152% |
| COC1C(C)OC(OC2CC(C)(O)Cc3cc4c(c(O)c32)C(=O)c2c(O)cc3c(c2C4=O)OC2OC3(C)C(O)C(N(C)C)C2O)C(OC)C1(C)OC (stereo unspecified) | inconclusive: 41.8% |

| Structure (SMILES) | inhibition |
| --- | --- |
| O=C1NC(=O)N(c2cccc(Cl)c2)C(=O)/C1=C\c1ccc(Sc2nc3ccccc3[nH]2)o1 | inconclusive: 86.8% |
| COc1ccc(NP2(=O)NCCCN2)cc1 | inconclusive: 78% |
| CCN(CC)c1ccc(N=Cc2c(O)n(CCC3=CCCCC3)c(=O)[nH]c2=O)cc1 | inconclusive: 80.5% |
| Cn1cc(C=C2C(=O)NC(=O)NC2=O)c2ccccc21 | inconclusive: 191% |
| COc1ccc(/C=C2\C(=O)NC(=O)N(CCC3=CCCCC3)C2=O)c(OC)c1 | inconclusive: 137% |
| CCOC(=O)Cn1cc(C=C2C(=O)N(C)C(=O)N(C)C2=O)c2ccccc21 | inconclusive: 161% |
| Cc1ccc(/C=C2\C(=O)NC(=O)N(CCc3ccc(F)cc3)C2=O)o1 | inconclusive: 75.5% |
| COc1ccc2c(c1OC)C(=O)O[C@H]2[C@@H]1c2cc3c(cc2CCN1C)OCO3 | inconclusive: 81.5% |
| O=[N+]([O-])c1ccc(N2CCCCCC2)c2nonc12 | inconclusive: 70.6% |
| COC(=O)Cn1cc(/C=C2\C(=O)NC(=O)N(c3ccc(OC)cc3)C2=O)c2ccccc21 | inconclusive: 113% |
| Nc1cc2nc3ccccc3nc2cc1N | inconclusive: 122% |
| Cc1ccc(N2C(=O)NC(=O)/C(=C\c3cccn3C(C)(C)C)C2=O)cc1 | inconclusive: 53.6% |
| CCOC(=O)C1CCCN(c2ccc([N+](=O)[O-])c3nonc23)C1 (stereo unspecified) | inconclusive: 151% |
| COCCNC(=O)Cn1cc(/C=C2\C(=O)NC(=O)N(c3cccc(C)c3C)C2=O)c2ccccc21 | inconclusive: 135% |
| CCOC(=O)c1c(-n2c(C)cc(/C=C3/C(=O)NC(=O)N(CC)C3=O)c2C)sc2c1CCCC2 | inconclusive: 31.4% |
| CCN(CC)c1ccc(N=Cc2c(O)n(Cc3ccco3)c(=O)[nH]c2=O)cc1 | inconclusive: 62.9% |
| Cc1ccc(/C=C2/Sc3ccc(C(=O)N4CCC5(CC4)OCCO5)cc3NC2=O)cc1 | inconclusive: 51.2% |
| CC[n+]1c(-c2ccccc2)c2cc(N)ccc2c2ccc(N)cc21 | inconclusive: 104% |
| Cc1ccc(OCCOc2cccc(C=C3C(=O)NC(=O)NC3=O)c2)cc1 | inconclusive: 39.9% |
| COc1cccc(N2C(=O)NC(=O)/C(=C\c3cn(C)c4ccccc34)C2=O)c1 | inconclusive: 70.9% |
| O=c1[nH]c(=S)n(-c2ccc(Cl)cc2)c(O)c1C=Nc1ccc(N2CCOCC2)cc1 | inconclusive: 91.2% |
| O=c1cc(C(F)(F)F)c2cc3c4c(c2o1)CCCN4CCC3 | inconclusive: 177% |
| CCOC(=O)c1c(-n2c(C)cc(C=C3C(=O)NC(=O)NC3=O)c2C)sc2c1CCCC2 | inconclusive: 87% |
| C[N+]1(C)CCC(OC(=O)C(c2ccccc2)c2ccccc2)CC1 | inconclusive: 54% |
| CCN(CC)c1ccc(N=Cc2c(O)n(-c3ccc(Cl)cc3)c(=O)[nH]c2=O)cc1 | inconclusive: 95.4% |
